Experimental data taken from patent US5958882A, “Compounds that inhibit T cell proliferation and methods using the same” (Thomas Jefferson University, priority 1996, dated 1999).
At least one peptide structure holds a part that was inferred or is arguable (an end, a ring closure or a residue). Where a SMILES comes first, the peptide text is derived from it. Bridges are numbered along the chain shown (N, C = ends). Where no end group is shown, it is not given here.

Key:
[1] = tested on: BALB/c spleen cells (responder) with irradiated C3H spleen cells (stimulator); assay: Mixed lymphocyte reaction (MLR), BALB/c anti-C3H alloresponse; assay type: cell-based, mouse; conditions: for inhibitory activity on MLR: BALB/c anti-C3H MLR, 5 days, [3H]TdR incorporation
Source text: The mixed lymphocyte reaction (MLR) is the response of one individual's T lymphocytes to those of a major histocompatibility complex (MHC) mismatched donor. CD4+ T cells recognize the foreign MHC proteins and proliferate in response to this, in a manner highly dependent on the CD4 molecule.
(§1) Mice were sacrificed and spleens aseptically removed. Cell suspensions were made by gently pressing spleens through nylon mesh, washing cells with RPMI 1640 and hypotonic lysis of red blood cells. After 3 washes in RPMI 1640, cells were resuspended in complete medium (RPMI 1640, 10% heat inactivated FCS, 2 mM L-glutamine, penicillin/streptomycin, and […]). 1×10^5 responder cells (BALB/c spleen cells) were incubated with 1×10^5 stimulator cells (C3H spleen cells, 2000 rad irradiated) in triplicate in round bottom 96 well plates (final volume 200 μl), and incubated with the indicated concentration of peptide (0.01, 0.1, 1, 10, 100 and 1000 μM peptide) for 5 days at 37° C., 5% CO2. 1 μCi/WELL OF [^3 H] TdR was added 12 hours before thymidine incorporation was measured. Labelled DNA from cells was harvested onto glass fiber filters with a PHD cell harvester (Cambridge, Mass.), and CPM determined by liquid scintillation counting with the use of a 1209 Rackbeta (LKB, Piscataway, N.J.).
A MLR was performed as described in Example 6. Cells were incubated with a 0.01, 0.1, 1, 10, 100, and 1000 μM of each of the following peptides: SEQ ID NO:1 (mPGPtide), and control peptides, SEQ ID NO:3 (hPGPtides) and SEQ ID NO:13 (mCDR3 scramble). […] Activity was approximately 85000 CPM after the addition of 0.01 μM SEQ ID NO:1, and approximately 30000 CPM after the addition of 200 μM SEQ ID NO:1. […] Activity was approximately 75000 CPM at 0.01 μM SEQ ID NO:3, and approximately 60000 CPM after the addition of 200 μM SEQ ID NO:3. Similarly, activity was approximately 80000 CPM after the addition of 0.01 μM of SEQ ID NO:13, and approximately 90000 CPM after the addition of 200 μM SEQ ID NO:13.
A MLR was performed as described in Example 6 using 0.01, 0.1, 1, 5, 20, 50 and 100 μM of SEQ ID NO:7, SEQ ID NO:8, SEQ ID NO:9 and SEQ ID NO:10. Murine peptides SEQ ID NO:7 (m86-104 C--C), SEQ ID NO:8 (m86-104 linear), SEQ ID NO:9 (m86-104 scramble), and SEQ ID NO:10 (m86-103 C--C) were tested for their effects on MLR in a BALB/c (H-2D) anti-C3H (H-2K) alloresponse. […] FIG. 4 illustrates the ability of the CDR3 analogs to inhibit L3T4-dependent responses. […] Thus, presentation of this charge in the context of both sequence as well as conformation is necessary for biological activity.

[2] = tested on: IL-2 production by T cell hybridoma 22D11 cells; assay: Inhibition of IL-2 production; assay type: cell-based, mouse; conditions: for inhibition of IL-2 production: 22D11 cells, 0.01-100 μM peptide
D10.G4.1 cells = assay: T cell proliferation assay (D10.G4.1, conalbumin); assay type: cell-based, mouse; conditions: for inhibition of T cell proliferation: D10.G4.1, conalbumin, 0.01-100 μM peptide, 72 hours
[3] = tested on: anti-TCR-stimulated 22D11 cells; assay: Cell death assay; assay type: cell-based, mouse; conditions: for IL-2 secreted (U/ml) / % viability (trypan blue) / % [3H]Tdr uptake: H57-587 coated plates, peptides 100 μM, mAbs at saturating concentrations; for IL-2 secreted (U/ml): 24 hours; for % [3H]Tdr uptake: 100 = uncoated, no reagent; for inhibition of receptor-mediated cell death: anti-TCR-stimulated 22D11 cells
[4] = tested on: human mixed lymphocyte reaction; assay: Human mixed lymphocyte reaction (Example 8, FIG. 3); assay type: cell-based; conditions: for inhibition of the proliferative response of the human MLR: 0.1-1000 μM
[5] = tested on: MLR in a BALB/c (H-2D) anti C3H (H-2K) alloresponse; assay: MLR of Example 10 (Table II); assay type: cell-based, mouse; conditions: MLR without peptide 66000 CPM
Method: as §1
A MLR was performed as described in Example 6. h84-101 C--C, SEQ ID NO:4, SEQ ID NO:5, SEQ ID NO:6, SEQ ID NO:11, (SEQ ID NO:4+SEQ ID NO:5), and a monoclonal antibody directed against CD4 (OKT4A) were tested for their effect on MLR in a BALB/c (H-2D) anti C3H (H-2K) alloresponse. MLR was also performed without the addition of peptide or antibody (MLR). […]

BALB/c spleen cells = assay: Spleen cell proliferative response to anti-CD3, LPS and rIL-2; assay type: cell-based, mouse

Compound | % CPM of a positive control ([1]; 100 μM peptide) | inhibitory activity on MLR [1] | % IL-2 production of a control ([2]; 50 μM peptide) | % IL-2 production of a control ([2]; 100 μM peptide) | inhibition of IL-2 production [2] | % T cell proliferation of control (D10.G4.1 cells; 100 μM peptide) | inhibition of T cell proliferation (D10.G4.1 cells) | IL-2 secreted (U/ml) [3] [U/ml] | % viability (trypan blue) [3] [%] | % [3H]Tdr uptake [3] [%] | inhibition of receptor-mediated cell death [3] | inhibition of the proliferative response of the human MLR [4] | also measured
CELENRKEEVEWVFKVTF [SEQ ID NO:8, CELENRKEEVEWVFKVTF] | about 80% | limited activity at higher concentrations | about 90% | ~60% | limited activity at higher concentrations | about 80% | limited activity at higher concentrations | 119 | 37 | 21 | very limited activity |  | 
CC(C)C[C@@H]1NC(=O)[C@H](CCC(=O)O)NC(=O)[C@@H](N)CSSC[C@@H](C(=O)O)NC(=O)[C@H](C(C)C)NC(=O)[C@H](CCCCN)NC(=O)[C@H](Cc2ccccc2)NC(=O)[C@H](C(C)C)NC(=O)[C@H](Cc2c[nH]c3ccccc23)NC(=O)[C@H](CCC(=O)O)NC(=O)[C@H](C(C)C)NC(=O)[C@H](CCC(=O)O)NC(=O)[C@H](CCC(=O)O)NC(=O)[C@H](CCCCN)NC(=O)[C@H](CCCNC(=N)N)NC(=O)[C@H](CC(N)=O)NC(=O)[C@H](CCC(=O)O)NC1=O [SEQ ID NO:10, CELENRKEEVEWVFKVC] (H-CELENRKEEVEWVFKVC-OH; disulfide 1-17) | about 55% | limited activity at higher concentrations | about 85% | ~70% | limited activity at higher concentrations | about 75% | limited activity at higher concentrations |  |  |  | very limited activity |  | 
CEVEDQKEEVQLLVFGLT [SEQ ID NO:12, CEVEDQKEEVQLLVFGLT] |  |  |  |  |  |  |  |  |  |  |  | little or no inhibition | % CPM of the positive control ([4]; 100 μM peptide): about 95%
CC(C)C[C@@H]1NC(=O)CNC(=O)[C@H](Cc2ccccc2)NC(=O)[C@H](C(C)C)NC(=O)[C@H](CC(C)C)NC(=O)[C@H](CC(C)C)NC(=O)[C@H](CCC(N)=O)NC(=O)[C@H](C(C)C)NC(=O)[C@H](CCC(=O)O)NC(=O)[C@H](CCC(=O)O)NC(=O)[C@H](CCCCN)NC(=O)[C@H](CCC(N)=O)NC(=O)[C@H](CC(=O)O)NC(=O)[C@H](CCC(=O)O)NC(=O)[C@H](C(C)C)NC(=O)[C@H](CCC(=O)O)NC(=O)[C@@H](N)CSSC[C@@H](C(=O)O)NC1=O [SEQ ID NO:2, CEVEDQKEEVQLLVFGLC] (H-CEVEDQKEEVQLLVFGLC-OH; disulfide 1-18) |  |  |  |  |  |  |  |  |  |  |  | inhibitory activity at low concentrations | % CPM of the positive control ([4]; 500 μM peptide): approximately 30%; half maximal inhibition ([4]; human MLR): low micromolar concentrations; CPM [5]: 20000 CPM
CC(C)[C@@H]1NC(=O)[C@H](CCC(=O)O)NC(=O)[C@@H](N)CSSC[C@@H](C(=O)O)NC(=O)[C@@H]2CCCN2C(=O)CNC(=O)[C@@H]2CCCN2C(=O)[C@H](CCC(=O)O)NC(=O)[C@H](CCC(=O)O)NC(=O)[C@H](CCCCN)NC(=O)[C@H](CCC(N)=O)NC(=O)[C@H](CC(=O)O)NC(=O)[C@H](CCC(=O)O)NC1=O [SEQ ID NO:3, CEVEDQKEEPGPC] (H-CEVEDQKEEPGPC-OH; disulfide 1-13) |  | little or no activity |  |  |  |  |  |  |  |  |  |  | MLR activity (CPM) ([1]; 0.01 μM peptide): approximately 75000 CPM; MLR activity (CPM) ([1]; 200 μM peptide): approximately 60000 CPM
ASQKKSIQFHWLNSNQILILGNQ [SEQ ID NO:14] |  |  |  |  |  |  |  |  |  |  |  | some inhibition | 
CC(C)C[C@@H]1NC(=O)[C@H](CCC(=O)O)NC(=O)[C@@H](N)CSSC[C@@H](C(=O)O)NC(=O)[C@H]([C@@H](C)O)NC(=O)[C@H](C(C)C)NC(=O)[C@H](CCCCN)NC(=O)[C@H](Cc2ccccc2)NC(=O)[C@H](C(C)C)NC(=O)[C@H](Cc2c[nH]c3ccccc23)NC(=O)[C@H](CCC(=O)O)NC(=O)[C@H](C(C)C)NC(=O)[C@H](CCC(=O)O)NC(=O)[C@H](CCC(=O)O)NC(=O)[C@H](CCCCN)NC(=O)[C@H](CCCNC(=N)N)NC(=O)[C@H](CC(N)=O)NC(=O)[C@H](CCC(=O)O)NC1=O [SEQ ID NO:7, CELENRKEEVEWVFKVTC] (H-CELENRKEEVEWVFKVTC-OH; disulfide 1-18) | approximately 0% | inhibitory activity at low concentrations | about 30% | about 25% | inhibitory activity at low concentrations |  | inhibitory activity at low concentrations | 33 | 74 | 69 | inhibited receptor-mediated cell death |  | % CPM of a positive control ([1]; 20 μM peptide): approximately 45%; % T cell proliferation of control (D10.G4.1 cells; 5 μM peptide, control SEQ ID NO:11): about 65%; % T cell proliferation of control (D10.G4.1 cells; from 25 μM to 100 μM peptide): about 30%; proliferative response to rIL-2 (BALB/c spleen cells; 100 U/ml): no effect; LPS-mediated B-cell proliferation (BALB/c spleen cells; LPS 10 μg/ml): no inhibition; proliferative response to αCD3 (145-2C11) (BALB/c spleen cells; anti-CD3 1% tissue culture supernatants): depressed in a dose dependent manner
CC(C)C[C@@H]1NC(=O)[C@H](CCC(=O)O)NC(=O)[C@H](CCC(=O)O)NC(=O)[C@H](CC(N)=O)NC(=O)[C@H](CCCNC(=N)N)NC(=O)[C@H](CCC(=O)O)NC(=O)[C@H](CCCCN)NC(=O)[C@H](CCC(=O)O)NC(=O)[C@H](C(C)C)NC(=O)[C@H](C(C)C)NC(=O)[C@H](CCC(=O)O)NC(=O)[C@H](CC(C)C)NC(=O)[C@H]([C@@H](C)O)NC(=O)[C@H](Cc2ccccc2)NC(=O)[C@H](C(C)C)NC(=O)[C@H](CCCCN)NC(=O)[C@H](Cc2c[nH]c3ccccc23)NC(=O)[C@@H](N)CSSC[C@@H](C(=O)O)NC1=O [SEQ ID NO:9, CWKVFTLEVVEKERNEELC, reference compound] (H-CWKVFTLEVVEKERNEELC-OH; disulfide 1-19) |  | inactive |  |  | inactive | 100% | inactive | 145 | 22 | 7 | completely inactive |  | % CPM of a control ([1]; regardless of the concentration of peptide added): about 100%; % IL-2 production of a control ([2]; concentration not given): approximately 100%
